# Laboratory results from publication PMC4336329 (PLoS ONE, 2015).
# In all, about 310,000 compounds went through this assay and about 14,000 (4.5%) showed an effect of 50% or more. The effect is printed as a negative number. This is one part of the list.
# Target: human ether-à-go-go-related gene (hERG) potassium channel (human, UniProt Q12809)
# Assay: primary screen, population patch clamp on CHO cells stably expressing hERG
# 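Also: peak tail current of the secondary pulse compared with the same well before compound.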
# Chain of human ether-à-go-go-related gene (hERG) potassium channel (Q12809 whole entry, looked up): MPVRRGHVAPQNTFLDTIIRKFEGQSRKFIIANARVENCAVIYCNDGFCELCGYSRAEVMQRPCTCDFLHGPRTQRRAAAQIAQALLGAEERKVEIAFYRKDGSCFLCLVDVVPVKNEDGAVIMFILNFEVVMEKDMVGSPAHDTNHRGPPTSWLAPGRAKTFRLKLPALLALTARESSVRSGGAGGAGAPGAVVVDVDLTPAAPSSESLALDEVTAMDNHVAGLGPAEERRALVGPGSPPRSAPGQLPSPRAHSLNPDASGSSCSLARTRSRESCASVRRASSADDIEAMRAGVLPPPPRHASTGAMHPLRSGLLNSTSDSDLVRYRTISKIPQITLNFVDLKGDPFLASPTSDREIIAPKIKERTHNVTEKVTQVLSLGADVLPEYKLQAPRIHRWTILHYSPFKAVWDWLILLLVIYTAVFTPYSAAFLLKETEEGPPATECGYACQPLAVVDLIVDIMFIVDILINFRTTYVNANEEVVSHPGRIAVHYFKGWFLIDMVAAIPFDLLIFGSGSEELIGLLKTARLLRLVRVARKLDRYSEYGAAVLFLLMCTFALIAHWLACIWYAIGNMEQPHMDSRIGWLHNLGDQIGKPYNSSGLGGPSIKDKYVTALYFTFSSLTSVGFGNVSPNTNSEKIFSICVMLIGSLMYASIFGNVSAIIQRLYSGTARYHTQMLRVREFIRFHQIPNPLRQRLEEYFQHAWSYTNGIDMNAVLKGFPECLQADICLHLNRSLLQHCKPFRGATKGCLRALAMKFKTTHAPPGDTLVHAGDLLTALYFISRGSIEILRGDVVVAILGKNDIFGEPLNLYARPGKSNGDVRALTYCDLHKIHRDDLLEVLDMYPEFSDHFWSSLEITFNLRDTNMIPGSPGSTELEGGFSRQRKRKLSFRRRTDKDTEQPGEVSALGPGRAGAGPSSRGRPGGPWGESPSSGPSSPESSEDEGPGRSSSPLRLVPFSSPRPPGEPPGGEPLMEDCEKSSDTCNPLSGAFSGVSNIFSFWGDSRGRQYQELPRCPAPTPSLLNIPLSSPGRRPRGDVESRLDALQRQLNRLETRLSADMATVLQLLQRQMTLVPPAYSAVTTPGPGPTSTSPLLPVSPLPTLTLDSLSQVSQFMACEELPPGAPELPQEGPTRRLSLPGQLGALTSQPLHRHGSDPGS
row,SMILES,"hERG current change (%, negative = inhibition) at 10uM [%]"
1,O=C(NCCCn1ccnc1)c1cccc(Br)c1,-10.3
2,COP(=O)(OC)C(NC(=O)Nc1ccccc1)c1ccccc1 (stereo not shown),0.454
3,Cc1ccc(Nc2nnc(SCn3nnc4ccccc4c3=O)s2)cc1,2.83
4,O=C(O)C1=C[C@@H](C2CC2)C[C@@H](OCCCCO)O1,10.9
5,C=CCn1c(O)c(C(CC)=Nc2ccc(N(CC)CC)cc2)c(=O)[nH]c1=O,13.3
6,COc1ccc(OC)c(-c2nc3cc4ccccc4cc3nc2-c2ccccc2)c1,11.4
7,Cc1ccc(CSc2sc(C(=O)c3ccccc3)c(N)c2C#N)cc1,6.41
8,CCOc1cc(C2Nc3ccccc3C(=O)N2c2ccccc2)ccc1O (stereo not shown),4.38
9,CCOc1ccccc1NC(=S)NC(=O)C1CCCCC1,14.6
10,Cc1ccc(C(=O)NNC(=O)CNc2cccc(Cl)c2)cc1,19
11,Cc1ccc(OCCCC(=O)Nc2ccc(S(=O)(=O)Nc3ccccn3)cc2)cc1,6.11
12,O=C(CCN1CCOCC1)NNC(=S)NC(=O)c1ccccc1,19.5
13,CN1CCc2nc3ccc(F)cc3c(C(N)=O)c2C1.Cl,-4.4
14,O=C(Nc1cc(=O)c2ccccc2o1)N1CCCCC1,2.06
15,O=C(CCC(=O)NNc1nc2ccccc2c2nc(-c3ccccc3)nn12)NCCCN1CCOCC1,7.93
16,CCn1cc(C(=O)NCCN(C)C)c(=O)c2cc(F)c(N3CCN(C)CC3)cc21.Cl,4.78
17,CCOC(=O)c1c(C)[nH]c(C(=O)OCC(=O)N2CCCC2=O)c1C,6.2
18,COc1cccc(N2CCN(Cc3nnnn3C3CCCCC3)CC2)c1,16.2
19,CN(CC(=O)Nc1ccc(F)cc1)C(=O)CN1C(=O)NC2(CCCc3ccccc32)C1=O (stereo not shown),10.7
20,O=C(CP(=O)(c1ccccc1)c1ccccc1)N1CCCCC1,1.57
21,CCN1CCN(c2cc(N3CCCC3)c(F)cc2[N+](=O)[O-])CC1,-27.9
22,COc1cc2c(cc1OC)CN(C(=O)c1ccc(-c3ccccc3)cc1)CC2,-0.999
23,Cn1c(SCc2cc(=O)n3cc(Br)ccc3n2)nnc1C1COc2ccccc2O1 (stereo not shown),-72
24,Cc1ccc([C@@H]2[C@@H]3C(=O)N(c4ccccc4)C(=O)[C@@H]3[C@]3(C)C(=O)N(CC4CC4)CC(=O)N23)o1,-4.44
25,O=C(O)CCNS(=O)(=O)c1ccc2c(c1)OCCCO2,18.5

row,SMILES,"hERG current change (%, negative = inhibition) at 10uM [%]"
1,Cc1cc(C)c(NC(=O)CCCOC(=O)C2=COCCO2)c(C)c1,16.1
2,CN(c1ccccc1)c1ccc(/C=C/[N+](=O)[O-])cc1,15.5
3,CCN(CC)c1ccc(/C=C(\C#N)C(=O)NCc2ccco2)cc1,2.25
4,CN1C(=S)SC(/[N+]([O-])=C\c2cccs2)C1(C)C (stereo not shown),3.73
5,Cc1ccn2c(NC(=O)c3ccccc3)c(-c3cccs3)nc2c1,16.5
6,COc1ccc(NC(=O)CSCC(=O)N(C)Cc2ccc3c(c2)OCCO3)cc1,0.31
7,Cc1cccc(OCCSc2cc(C)nc(N)n2)c1,-7.77
8,CC1CCCCN1CCNC(=O)c1ccc2c(c1)N(Cc1ccccc1)C(=O)c1ccccc1S2(=O)=O (stereo not shown),-20.8
9,CCC1=C(OC(=O)N(CC)CC)N2C(=O)OC(=NCc3ccccc3)[C@]2(C)[C@H]2C1=CC[C@H]1C(=O)NC(=O)[C@H]12,-6.14
10,COc1cccc(NC(=O)N2CCCC2C(=O)NCC(C)C)c1 (stereo not shown),15.8
11,CCCCn1c(N)c(N(CCOC)C(=O)c2ccc(NC3CC3)c([N+](=O)[O-])c2)c(=O)[nH]c1=O,-3.27
12,Oc1ccc(O)c(/C(=N/Nc2ccccc2)c2ccccc2)c1,11
13,Cc1ccccc1CS(=O)(=O)CCC(=O)NCCN1CCN(c2cccc(Cl)c2)CC1,-42.5
14,COC(=O)c1cc(NC(=O)CN2CCN(C(C)=O)CC2)cc(C(=O)OC)c1,3.85
15,C=CCN1c2ccccc2[C@]23C[C@@H](C(=O)OC)N(C(C)=O)C2=NC(C(=O)OC)=C(C(=O)OC)[C@H]13,-42.9
16,CCn1cc(NC(=O)Nc2ccccc2C(=O)OC)c(C(N)=O)n1,10.1
17,CCCN1CCN(C(c2cc3cc4c(cc3[nH]c2=O)OCO4)c2nnnn2C(C)(C)C)CC1 (stereo not shown),-12.8
18,O=S(=O)(c1ccc(OC(F)(F)F)cc1)N1CCCC(N2CCOCC2)C1 (stereo not shown),-40.1
19,COc1ccc(-n2c(Cn3nc(C(F)(F)F)cc3C)n[nH]c2=S)cc1,21.3
20,CCc1nnc(NS(=O)(=O)c2ccc(NC(=O)OC)cc2)s1,3.48
21,Cc1ccc(/C=C2/SC(=S)N(C3CCCCC3)C2=O)o1,0.16
22,Cc1ccnc(SCC(=O)N2CCc3ccccc32)n1,7.77
23,COc1cccc(C(=O)NCCS(=O)(=O)NCc2cccnc2)c1,8.66
24,C=CCSc1n[nH]c(-c2ccc(OC)cc2)n1,7.64
